# Experimental data published in PubChem BioAssay (Tox21).
# Values joined by “and” are separate entries in the source; they are usually repeats but may differ in a detail not shown here. Equal values may be shown once. Inconclusive results, whose numbers are uncertain, are shown with a selection of clear calls. Where the call is inconclusive, the potency comes from a doubtful curve fit. Some structures have more than one record in an assay (separate samples or runs), and their calls can disagree. Active and inactive are the calls of the source. Unless noted, calls come from the whole dose curve; as a rule, active = well fitted curve in the direction sought with a large enough effect in the repeat runs; inconclusive = weak or mixed curves; inactive = no such curve, though single readings can be large; an effect the other way counts as inactive or inconclusive.
# Experiments:
# [1] = qHTS assay for small molecule agonists of the p53 signaling pathway (AID 651631; calls by dose curve; note: nearly all actives have a fitted effect of over 15% in size); details: HCT-116 p53RE-bla reporter, beta-lactamase FRET ratio, 16 h; activation: at 73.3 µM (top of the series) unless noted
# In short: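 Stably transfected HCT-116 cells (beta-lactamase behind p53 response elements) get compounds after a 5 h settling period; 16 h later at 37 °C, FRET substrate is loaded and fluorescence read after 2 h.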
# [2] = qHTS assay for identifying genotoxic compounds that show differential cytotoxicity against isogenic chicken DT40 cell lines with known DNA damage response pathways - Rev3 mutant cell line (AID 743014); details: chicken DT40 Rev3-/- viability, CellTiter-Glo, 40 h; activity, negative = cytotoxicity: at 68.4 µM (top of the series) unless noted; note: nearly all actives have a fitted effect of over 55% in size
# [3] = qHTS assay for identifying genotoxic compounds that show differential cytotoxicity against isogenic chicken DT40 cell lines with known DNA damage response pathways - Rad54/Ku70 mutant cell line (AID 743015); details: DT40 Rad54/Ku70 mutant viability, CellTiter-Glo, 40 h; activity change, negative = cytotoxicity: at 66.8 µM (top of the series) unless noted; note: nearly all actives have a fitted effect of over 60% in size
# [4] = qHTS assay for small molecules that induce genotoxicity in human embryonic kidney cells expressing luciferase-tagged ATAD5 (AID 651632); details: HEK293T ATAD5-luciferase induction, 16 h; series mostly up to 83.3 µM; note: nearly all actives have a fitted effect of over 15% in size; for activation: % is set by controls: 0 for no effect and ±100 for the full control effect
# In short: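 ATAD5-luc HEK293T, 2,000 cells/well; cpd or DMSO pin-transferred; 16 hr, 37C/5% CO2; Amplite 30 min RT; luminescence.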
# [5] = qHTS assay for small molecule disruptors of the mitochondrial membrane potential - cell viability (AID 720634; calls by dose curve; note: nearly all actives have a fitted effect of over 20% in size;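 for activity change, negative = cytotoxicity: human HepG2 liver cancer cells; % is set by controls: 0 for no effect and ±100 for the full control effect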); details: HepG2 viability, ATP luminescence (CellTiter-Glo), 1 h; series mostly up to 83.2 µM
# In short: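 Cells: HepG2, 2,000/well, attached overnight. Compound 1 hr, 37 C/5% CO2. +m-MPI dye, +CellTiter-Glo 30 min RT. Readout: luminescence (ATP).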
# [6] = qHTS assay for small molecules that induce genotoxicity in human embryonic kidney cells expressing luciferase-tagged ATAD5 - cell viability (AID 651634; calls by dose curve; note: nearly all actives have a fitted effect of over 25% in size; for activity, negative = cytotoxicity: % is set by controls: 0 for no effect and ±100 for the full control effect); details: HEK293T ATAD5-luc cells viability, CellTiter-Fluor, 15.5 h; series mostly up to 83.3 µM
# In short: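 Fluorescence from CellTiter-Fluor, reporting protease activity within live cells, served as the viability read-out. HEK293T cells carrying luciferase-tagged ATAD5 had been treated with compound for 15.5 hr at 37C.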
# [7] = qHTS assay for small molecule disruptors of the mitochondrial membrane potential (AID 720635); details: HepG2 mitochondrial membrane potential, Mito-MPS dye ratio; ratio activity, negative = MMP loss: at 83.2 µM (top of the series) unless noted
# In short: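 Mitochondrial membrane potential tracked with Mito-MPS dye, red aggregates (ex 540/em 590 nm) against green monomers (ex 490/em 535 nm). Compound treatment 1 hr at 37C, dye 30 min in HepG2.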
# [8] = qHTS assay for identifying genotoxic compounds that show differential cytotoxicity against isogenic chicken DT40 cell lines with known DNA damage response pathways - wild type cell line (AID 743012); details: DT40 wild type chicken cells viability, CellTiter-Glo, 40 h; activity change, negative = cytotoxicity: at 68.4 µM (top of the series) unless noted; note: nearly all actives have a fitted effect of over 60% in size; for activity change, negative = cytotoxicity: % is set by controls: 0 for no effect and ±100 for the full control effect
# In short: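 Wild type DT40, 300 cells/well, ~0.5 h settle at 37 C/5% CO2; compounds in DMSO added by pintool; 40 h at 37 C/5% CO2; CellTiter-Glo, 30 min RT; luminescence.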
# [9] = molecular target: Glucocorticoid receptor (Homo sapiens) (UniProt P04150); experiment: qHTS assay to identify small molecule antagonists of the glucocorticoid receptor (GR) signaling pathway (AID 720692; active = well fitted inhibition curve with a large enough effect in the signal ratio in the repeat runs, not every such curve was filed as active; inconclusive = weak or mixed curves, or effect the other way; inactive = no such curve, though single readings can be large or run the other way; the % refers to the signal ratio); details: GR-bla HeLa, beta-lactamase FRET ratio, dexamethasone-stimulated, 18 h; activity change, negative = inhibition: at 58.5 µM (top of the series) unless noted
# In short: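 HeLa GR-bla cells; cmpd + dex 5 nM final, 18 h 37 C; LiveBLAzer B/G FRET substrate 2 h RT; fluorescence intensity read. Antagonist mode, qHTS.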
# [10] = qHTS assay to identify small molecule antagonists of the glucocorticoid receptor (GR) signaling pathway - cell viability counter screen (AID 720693); details: GR-bla HeLa viability, CellTiter-Glo luminescence, 18 h, with 5 nM dexamethasone present; viability change, negative = cytotoxic: at 58.5 µM (top of the series) unless noted; note: nearly all actives have a fitted effect of over 55% in size
# [11] = molecular target: Glucocorticoid receptor (Homo sapiens) (UniProt P04150); experiment: qHTS assay to identify small molecule agonists of the glucocorticoid receptor (GR) signaling pathway (AID 720691; active = well fitted activation curve with a large enough effect in the signal ratio in the repeat runs, not every such curve was filed as active; inconclusive = weak or mixed curves, or effect the other way; inactive = no such curve, though single readings can be large or run the other way; the % refers to the signal ratio); details: GR-bla HeLa, beta-lactamase reporter ratio, 18 h; activation: at 62.4 µM (top of the series) unless noted
# In short: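 Fluorescence intensity from LiveBLAzer B/G FRET substrate (2 h, room temperature) reports beta-lactamase expression driven by the glucocorticoid response element in GR-bla HeLa cells after 18 h compound exposure at 37 C.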
# [12] = qHTS assay for small molecule agonists of the p53 signaling pathway - cell viability (AID 651633; calls by dose curve; note: nearly all actives have a fitted effect of over 30% in size); details: p53RE-bla HCT-116 viability, ATP luminescence, 16 h; series mostly up to 83.3 µM
# In short: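 Viability counter-read: CellTiter-Glo luminescence (30 min, room temperature) in the same p53RE-bla plates. These plates had been exposed to compounds for 16 h at 37 C.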
# [13] = qHTS assay to test for compound auto fluorescence at 460 nm (blue) in HEK293 cell free culture (AID 720681); details: cell-free medium, autofluorescence 405/460 nm (blue); series mostly up to 91.3 µM
# In short: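 Blue fluorescence (Ex 405/Em 460 nm, triamterene-equivalent) was read immediately after pin transfer of compound or DMSO into medium (DMEM, 10% FBS) without cells.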
# Potency is the fitted concentration of half-maximal effect; tags give direction and shape of the fitted curve or compound fluorescence and quenching.
# Sequence of UniProt P04150 (P04150 whole entry, looked up): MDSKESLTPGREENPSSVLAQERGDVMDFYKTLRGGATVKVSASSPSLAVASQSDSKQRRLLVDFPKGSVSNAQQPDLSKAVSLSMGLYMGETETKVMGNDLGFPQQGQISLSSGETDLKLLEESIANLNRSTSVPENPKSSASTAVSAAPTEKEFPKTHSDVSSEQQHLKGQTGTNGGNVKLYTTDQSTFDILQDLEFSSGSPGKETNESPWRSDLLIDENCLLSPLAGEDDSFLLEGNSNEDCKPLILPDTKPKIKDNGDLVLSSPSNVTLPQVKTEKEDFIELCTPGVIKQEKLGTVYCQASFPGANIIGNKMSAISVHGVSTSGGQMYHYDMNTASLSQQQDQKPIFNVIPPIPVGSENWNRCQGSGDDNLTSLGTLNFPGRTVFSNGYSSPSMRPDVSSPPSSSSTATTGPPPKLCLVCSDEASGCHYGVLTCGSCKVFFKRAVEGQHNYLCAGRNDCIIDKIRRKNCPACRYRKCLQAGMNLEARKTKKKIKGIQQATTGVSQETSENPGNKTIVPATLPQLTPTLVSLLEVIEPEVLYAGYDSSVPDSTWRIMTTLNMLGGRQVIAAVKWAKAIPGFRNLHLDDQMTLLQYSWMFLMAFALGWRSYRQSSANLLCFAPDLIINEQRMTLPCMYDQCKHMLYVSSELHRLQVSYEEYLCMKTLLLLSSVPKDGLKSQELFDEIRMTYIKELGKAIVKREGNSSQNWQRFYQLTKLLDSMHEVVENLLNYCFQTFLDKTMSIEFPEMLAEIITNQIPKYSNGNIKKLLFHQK
smiles,measurement,setting,value
CCNc1nc(NC(C)(C)C)nc(SC)n1,Potency,[1],"inconclusive: 30.6 µM [falling, partial curve, poor fit]"
same,Potency,[2],"inconclusive: 68.6 µM [cytotoxic, single point]"
same,Potency,[3],"inconclusive: 67.7 µM [cytotoxic, single point]"
N#CC(Br)Br,Potency,[4],"inconclusive: 76.5 µM [activator, partial curve, poor fit]"
same,Potency,[5],inactive
c1ccc(N=NNc2ccccc2)cc1,Potency,[4],"inconclusive: 28.3 µM [activator, partial curve, poor fit]"
same,Potency,[6],"inconclusive: 39.9 µM [falling, partial curve, poor fit]"
same,Potency,[5],"active: 56.4 µM and inconclusive: 30.6 µM [cytotoxic, partial curve]"
same,Potency,[7],active: 7.1 µM and active: 5.45 µM
same,Potency,[8],"inconclusive: 79.6 µM [cytotoxic, single point] and inconclusive: 68.6 µM [cytotoxic]"
same,Potency,[2],"inconclusive: 71 µM [cytotoxic, single point] and inconclusive: 43.3 µM [cytotoxic, partial curve, poor fit]"
same,Potency,[3],"active: 63.3 µM and inconclusive: 61.1 µM [cytotoxic, single point]"
Cc1ccc(N)cc1,Potency,[4],inactive
same,"activity change, negative = cytotoxicity",[8],inconclusive: -2.91%
C#C[C@]1(O)CC[C@H]2[C@@H]3CCC4=CC(=O)CCC4=C3C=C[C@@]21CC,Potency,[4],inconclusive: 11.9 µM [activator]
same,Potency,[6],inactive
same,Potency,[5],"inconclusive: 33.5 µM [cytotoxic, partial curve, poor fit]"
same,"ratio activity, negative = MMP loss",[7],inconclusive: 25.3%
same,Potency,[9],active: 0.379 µM
same,Potency,[10],"inconclusive: 2.39 µM [cytotoxic, full curve]"
same,Potency,[8],active: 10.6 µM
same,Potency,[2],active: 13.3 µM
CCCC(=O)Cl,Potency,[1],"inconclusive: 34.4 µM [activator, partial curve, poor fit]"
same,Potency,[2],"inconclusive: 77 µM [cytotoxic, single point]"
CN(C)N=O,Potency,[4],"inconclusive: 60.8 µM [activator, partial curve, poor fit]"
same,Potency,[7],"inconclusive: 24.2 µM [activator, partial curve]"
same,"activity change, negative = inhibition",[9],inconclusive: 0.703%
same,Potency,[8],"inconclusive: 76.6 µM [rising, single point]"
same,Potency,[3],inactive
N#CNC#N,Potency,[4],"inconclusive: 69.4 µM [activator, partial curve, poor fit]"
same,Potency,[7],"inconclusive: 77.8 µM [rising, partial curve, poor fit]"
same,Potency,[11],inactive
same,Potency,[2],inactive
O=P(O)(O)CCCl,Potency,[1],inactive
same,Potency,[3],inactive
Nc1ccc(N)cc1,Potency,[4],"inconclusive: 68.9 µM [activator, partial curve, poor fit] and inconclusive: 68.6 µM [activator, partial curve, poor fit]"
same,Potency,[5],"inconclusive: 68.6 µM [cytotoxic, partial curve, poor fit]"
same,Potency,[7],active: 841 nM and active: 5.47 µM and active: 3.86 µM
same,Potency,[8],"inconclusive: 33.5 µM [cytotoxic, single point] and active: 54.7 µM and inconclusive: 68.6 µM [cytotoxic, single point]"
same,Potency,[2],"inconclusive: 33.5 µM [cytotoxic, single point]"
same,Potency,[3],"inconclusive: 68.6 µM [cytotoxic, single point]"
C=CCN(CC=C)C(=O)C(Cl)Cl,Potency,[4],inactive
same,Potency,[2],"inconclusive: 68.6 µM [cytotoxic, single point]"
CCCN(CCC)N=O,Potency,[1],inactive
same,Potency,[8],inactive
same,Potency,[2],"inconclusive: 60.3 µM [rising, partial curve, poor fit]"
CCN(CC)C(=S)[S-].CCN(CC)C(=S)[S-].[Zn+2],Potency,[4],active: 5.4 µM
same,Potency,[12],active: 4.29 µM
same,Potency,[7],active: 3.41 µM
same,Potency,[9],"inconclusive: 24.3 µM [cytotoxic, full curve]"
same,Potency,[10],"inconclusive: 54.5 µM [cytotoxic, single point]"
same,Potency,[2],active: 1.08 µM
CC1=C(C(=O)Nc2ccccc2)SCCO1,Potency,[4],"inconclusive: 62.1 µM [activator, partial curve, poor fit] and inconclusive: 61.1 µM [activator, partial curve, poor fit]"
same,Potency,[7],"inconclusive: 31.1 µM [inhibitor, partial curve] and inconclusive: 61.1 µM [inhibitor, single point]"
CC(=O)[C@H]1CC[C@H]2[C@@H]3CC[C@H]4C[C@](C)(O)CC[C@]4(C)[C@H]3CC[C@]12C,Potency,[1],"inconclusive: 18.8 µM [rising, partial curve, poor fit]"
same,Potency,[2],"inconclusive: 33.5 µM [rising, partial curve, poor fit]"
C[C@H]1CNCCc2ccc(Cl)cc21,Potency,[1],"inconclusive: 11.9 µM [rising, partial curve, poor fit]"
same,Potency,[8],active: 26.6 µM
same,Potency,[3],inconclusive: 26.6 µM [cytotoxic]
CCOP(=S)(OCC)Oc1ccc2c(C)c(Cl)c(=O)oc2c1,Potency,[12],"inconclusive: 4.38 µM [cytotoxic, full curve, poor fit]"
same,Potency,[5],"inactive and inconclusive: 24.6 µM [cytotoxic, partial curve] and active: 24.3 µM"
same,"ratio activity, negative = MMP loss",[7],inconclusive: 20.7%
same,Potency,[13],"inconclusive: 31.6 µM [rising, partial curve, poor fit]"
same,Potency,[2],"inconclusive: 24.6 µM [cytotoxic, partial curve, poor fit]"
CC1=C2[C@H]3OC(=O)[C@@H](C)[C@@H]3CC[C@@]2(C)C=CC1=O,Potency,[1],inactive
same,Potency,[2],"inconclusive: 29.8 µM [rising, partial curve, poor fit]"
CCCC[n+]1ccc(C)cc1,Potency,[12],"inconclusive: 68.2 µM [cytotoxic, single point]"
same,Potency,[5],active: 48.3 µM
same,Potency,[7],"inconclusive: 0.305 µM [activator, partial curve, poor fit]"
same,Potency,[10],inconclusive: 54.7 µM [cytotoxic]
same,Potency,[2],"inconclusive: 17.1 µM [cytotoxic, full curve] and inconclusive: 68.7 µM [cytotoxic] and inconclusive: 43.8 µM [cytotoxic, partial curve, poor fit]"
COC(=O)/C=C(\C)OP(=O)(OC)OC,Potency,[1],"inconclusive: 13.7 µM [falling, partial curve, poor fit]"
same,Potency,[2],active: 24.3 µM
C#C[C@]1(O)CC[C@H]2[C@@H]3CCC4=CC(=O)CC[C@]4(C)[C@H]3CC[C@@]21C,Potency,[4],"inconclusive: 54.5 µM [activator, partial curve]"
same,Potency,[11],inactive
same,Potency,[10],"inconclusive: 5.35 µM [cytotoxic, full curve] and inconclusive: 8.49 µM [cytotoxic, partial curve]"
same,Potency,[2],"inconclusive: 29.8 µM [rising, partial curve, poor fit]"
CCOCn1c(-c2ccc(Cl)cc2)c(C#N)c(Br)c1C(F)(F)F,Potency,[12],active: 30.6 µM
same,Potency,[6],inconclusive: 19.3 µM
same,Potency,[5],"inconclusive: 0.243 µM [cytotoxic, full curve, poor fit]"
same,Potency,[7],active: 0.0486 µM
same,Potency,[9],"inconclusive: 1.1 µM [falling, partial curve, poor fit]"
C[C@]12CCC(=O)C=C1CC[C@@H]1[C@@H]2CC[C@]2(C)C(=O)CC[C@@H]12,Potency,[4],inactive
same,Potency,[12],"inconclusive: 67.4 µM [cytotoxic, single point]"
same,Potency,[5],"inconclusive: 37.9 µM [cytotoxic, partial curve, poor fit]"
same,Potency,[7],"inconclusive: 26.8 µM [activator, full curve]"
same,"ratio activity, negative = MMP loss",[7],inconclusive: 22.7%
same,Potency,[8],"inconclusive: 67.4 µM [cytotoxic, single point]"
CC[n+]1ccccc1,Potency,[12],"inconclusive: 34.1 µM [cytotoxic, partial curve, poor fit]"
same,Potency,[6],"inconclusive: 27.1 µM [falling, partial curve]"
same,Potency,[5],"inconclusive: 68 µM [cytotoxic, partial curve, poor fit]"
same,Potency,[7],"inconclusive: 1.71 µM [inhibitor, partial curve, poor fit]"
same,Potency,[10],"inconclusive: 61.1 µM [cytotoxic, single point]"
same,Potency,[8],"inconclusive: 1.08 µM [rising, single point] and inconclusive: 68.8 µM [rising, single point]"
same,Potency,[3],inconclusive: 68 µM [cytotoxic]
CCOP(=S)(OCC)Oc1cc(Cl)c(Br)cc1Cl,Potency,[1],"inconclusive: 68.6 µM [rising, partial curve, poor fit]"
same,Potency,[8],"inconclusive: 68.6 µM [cytotoxic, single point]"
same,Potency,[2],"inconclusive: 54.5 µM [cytotoxic, partial curve]"
same,Potency,[3],"inconclusive: 61.1 µM [cytotoxic, single point]"
[Hg+2].[I-].[I-],Potency,[4],"inconclusive: 4.33 µM [activator, partial curve, poor fit]"
same,Potency,[5],active: 48.6 µM
same,Potency,[7],active: 17.2 µM
same,Potency,[11],"inconclusive: 21.9 µM [falling, partial curve]"
same,Potency,[9],inconclusive: 54.9 µM [cytotoxic]
same,Potency,[10],"inconclusive: 61.6 µM [cytotoxic, single point]"
O=[N+]([O-])c1ccc(CBr)cc1,Potency,[4],"inconclusive: 53.8 µM [activator, partial curve, poor fit]"
same,"ratio activity, negative = MMP loss",[7],inconclusive: 35.7% [at 95.3 µM]
same,Potency,[8],inactive
